The assay addresses full length YU2 gp120 (HIV-1 strain YU2) (UniProt P35961). Kind of assay: ITC, gp120 equilibrated with D1D2. In general terms: In ITC the heat of successive injections is recorded.

In the case of “17b (human monoclonal antibody of gp120)”, the increase in ΔG value in the presence of D1D2 came to 0.8 kcal/mol.
